Measured values from PubChem BioAssay AID686978 (National Center for Advancing Translational Sciences (NCATS), 2013).
Among all 420,000 compounds or so, about 64,000 (15%) were called active. The shares of active, inactive and inconclusive entries below differ from those in the screen. Calls come from the whole dose curve; as a rule, active = well fitted inhibition curve with a large enough effect; inconclusive = small, poorly fitted or top-dose-only effect; inactive = flat fitted curve, though single readings scatter. Potencies of inconclusive entries are left out as doubtful fits.

assay: qHTS for Inhibitors of human tyrosyl-DNA phosphodiesterase 1 (TDP1): qHTS in cells in absence of CPT; conditions: DT40 Tdp1-/- hTDP1 cells, no CPT, ATP luminescence, 48 h; activity change, negative = growth inhibition: at 46.2 µM (top of the series) unless noted; note: nearly all actives have a fitted effect of over 55% in size
Summary of the method: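 Chicken DT40 Tdp1-/- cells stably complemented with human TDP1 were seeded at 400 cells/well with DMSO in place of 20 nM camptothecin. After compound pinning, cells grew at least 48 hr at 37 °C; viability read by CellTiter-Glo luminescence.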
% is set by controls: 0 for no effect and ±100 for the full control effect; potency is the fitted concentration of half-maximal effect; tags give direction and shape of the fitted curve.

Structure (SMILES)	Potency	activity change, negative = growth inhibition
Cc1ccc(C(C(=O)NC2CCCC2)N(C(=O)c2csnn2)C2CCCC2)o1 (configuration not stated)	inconclusive [inhibitor, partial curve]	
NC(=O)c1ccc[n+](CC(=O)OCCC23CC4CC(CC(C4)C2)C3)c1		inactive: -24.9%
CC(C)NC(=S)N1CCN(S(=O)(=O)c2cccc(C(F)(F)F)c2)CC1	inconclusive [inhibitor, single point]	
CC(=O)c1cccc(NC(=O)c2sc(-n3nc(C)c(Cc4ccccc4)c3C)nc2C)c1	inconclusive [inhibitor, partial curve]	
COCCNC(=O)c1ccc2c(c1)N(Cc1cc(C)ccc1C)C(=O)c1ccccc1S2=O (configuration not stated)	active: 14.6 µM	
OC(C#Cc1ccccc1)(c1ccccc1)c1ccccc1	inconclusive [inhibitor, single point]	
CCCN(CCC)C(=S)NC(=O)c1ccc(Cl)cc1Cl	inconclusive [inhibitor, single point]	
O=C(CSc1ccc2c(c1)OCCO2)Nc1ccc(Br)cc1		inactive: -28%
O=C(CSc1n[nH]c(-c2cccnc2)n1)Nc1ccnc2ccccc12	inconclusive [inhibitor, partial curve, poor fit]	
CCC(=O)c1ccc(OCC(=O)N2CCN(S(=O)(=O)c3ccc(Cl)s3)CC2)cc1	inconclusive [inhibitor, full curve]	
CCOC(=O)CSc1nc2ccccc2c(=O)n1CCCCCC(=O)NCc1ccco1	inconclusive [inhibitor, single point]	
Nc1ccn([C@@H]2O[C@H](C(=O)N3CCN(Cc4ccccn4)CC3)[C@@H](O)[C@H]2O)c(=O)n1		inactive: -1.84%
Cc1ccc2c(CNC3CCCCC3)c(C(=O)O)n(Cc3ccc(F)cc3)c2c1		inconclusive: -31.4% [inhibitor]
CC(/C=C\C=C\c1ccccc1)=N\NC(=O)c1cncc(Br)c1	active: 7.31 µM	
O=C(Nc1nnc(-c2ccccc2Cl)o1)c1ccc(S(=O)(=O)N2CCCCCC2)cc1	active: 5.8 µM	
Cc1ccc(C(=O)COc2ccccc2N2C(=O)c3ccccc3C2=O)cc1		inactive: 1.87%
O=C(Nc1nc2c(s1)CCCC2)c1cc2n(n1)C(C(F)(F)F)CC(C1CC1)N2 (configuration not stated)	inconclusive [inhibitor, partial curve, poor fit]	
Cc1cc(-n2c(C)cc(C(=O)CSc3nncn3C(C)C)c2C)no1		inconclusive: -30% [inhibitor]
CCN(C(=O)CSc1nc2ccc([N+](=O)[O-])cc2s1)C1CCS(=O)(=O)C1 (configuration not stated)	inconclusive [inhibitor, single point]	
CS(=O)(=O)N1CCC(C(=O)N2CCN(c3ccc(F)cc3)CC2)CC1		inactive: -11.6%
COc1ccc(-c2noc(CCC(=O)N3CCN(c4ccc(Cl)cc4)CC3)n2)cc1		inactive: -25.6%
CCCCCC(=O)NNC(=S)NC(C)=O	active: 18.4 µM	
CCCCc1ccc(NC(=S)N2CCN(C(=O)c3ccco3)CC2)cc1		inactive: -29.1%
CCOC(=O)N1CCN(C(=O)CCCn2c(=S)[nH]c3ccsc3c2=O)CC1		inactive: 3.26%

Structure (SMILES)	Potency	activity change, negative = growth inhibition
COc1ccc(N2C(N)=NC(N)=NC23CCCC3)cc1	active: 1.46 µM	
O=C(COC(=O)/C=C/C(=O)N1CCN(c2ccccc2)CC1)NC(c1ccccc1)c1ccccc1	inconclusive [inhibitor, single point]	
CC1CCN(Cc2c(C(=O)N/N=C/c3ccccc3O)nnn2-c2nonc2N)CC1	active: 7.31 µM	
OC(COCC1COc2ccccc2O1)CN1CCN(c2ccc(F)cc2)CC1 (configuration not stated)	inconclusive [inhibitor, partial curve, poor fit]	
Cc1ccc(S(=O)(=O)/N=c2\ccc(Cl)cn2C(F)F)cc1		inactive: -16.5%
CCCCOC(=O)C1=C(C)NC(=O)NC1c1ccc2c(c1)OCO2 (configuration not stated)		inconclusive: -32.6% [inhibitor]
COc1cccc(CNCCc2c[nH]c3ccccc23)c1OCc1ccc(F)cc1	active: 14.6 µM	
O=C(NCc1ccccn1)c1ccc2c(=O)n(CCc3ccccc3)c(=O)[nH]c2c1	inconclusive [inhibitor, single point]	
CCCCCC(=O)Nc1ccc(N2CCN(C(=O)c3ccccc3)CC2)cc1	inconclusive [inhibitor, single point]	
Nc1nnnn1/N=C\c1ccc(Cl)c([N+](=O)[O-])c1	inconclusive [inhibitor, partial curve]	
COCCNc1nc(NCCN2CCNC2=O)c2sccc2n1		inactive: -4.68%
O=C(COc1cccnc1[N+](=O)[O-])Nc1ccc2c(c1)OC(F)(F)O2	inconclusive [inhibitor, partial curve, poor fit]	
O=C(COc1ccccc1Cl)NCc1ccncc1		inactive: -3.48%
COc1cc(/C=C2/SC(=NCc3ccccc3)N(Cc3ccccc3)C2=O)ccc1O	inconclusive [inhibitor, single point]	
CCOc1ccccc1NC(=S)N1CCC(c2nc3ccccc3o2)CC1	inconclusive [inhibitor, single point]	
COc1cc(C(Nc2ccc(S(=O)(=O)N3CCC(C)CC3)cc2)C(=O)NCC2CCCO2)cc(OC)c1OC (configuration not stated)	inconclusive [inhibitor, single point]	
COCc1cc(=O)[nH]c(/N=C(\N)Nc2ccc(C)cc2C)n1		inactive: -7.71%
COCCCn1c(SCc2cccc(Cl)c2)nc2c(sc3ccccc32)c1=O	inconclusive [inhibitor, single point]	
O=C(NCCS(=O)(=O)NCC1CCCO1)c1ccccc1 (configuration not stated)		inactive: -16.3%
CCOCCc1nn2c(=O)cc(COC(=O)c3ccccc3OC)nc2s1	inconclusive [inhibitor, single point]	
CCc1ccccc1NC(=O)NC1CC2CCC(C1)N2Cc1cccs1 (configuration not stated)		inactive: -26.4%
CC(C)CNC1=C(C(=S)Nc2ccccc2)C(=O)CC(C)(C)C1	inconclusive [inhibitor, full curve, poor fit]	
CCOC(=O)C1CCCN(C(=O)c2ccc3c(c2)sc2nc(-c4cccc(OC)c4)cn23)C1 (configuration not stated)	active: 14.6 µM	
